# In PubChem BioAssay AID504832 (National Center for Advancing Translational Sciences (NCATS), 2011):
# In all, about 310,000 compounds went through this assay and about 18,000 (5.8%) were called active. Inconclusive results, whose numbers are uncertain, are shown with a selection of clear calls. Calls follow the shape of the dose curve; as a rule, active = well fitted inhibition curve with a large enough effect; inconclusive = small, poorly fitted or top-dose-only effect, or another doubt; inactive = no such curve, though single readings can be large or run the other way. No potency is given beside an inconclusive call; the fits are too rough.
# Assay: Primary qHTS for delayed death inhibitors of the malarial parasite plastid, 48 hour incubation
# Conditions: P. falciparum luciferase growth in erythrocytes; series mostly up to 28.7 µM; activity change, negative = inhibition: at the top concentration
# In short: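 Compounds are pin-transferred into medium, infected erythrocytes (2% hematocrit, 0.1% parasitemia final) are added, and plates sit one parasite generation at 37 C in 5% CO2. Detection reagent is then added and luminescence measured.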
# % is scaled to controls: 0 for no effect and ±100 for the full control effect; potency is read from the fitted curve at half-maximal effect; tags tell the direction and shape of the fitted curve.
Compound,Potency,"activity change, negative = inhibition"
CC(C)N(C(=S)NCc1ccccc1)c1ccccc1,"inconclusive [inhibitor, partial curve]",
CCc1cc(C(=O)Cc2cnn(-c3ccccc3)c2)c(O)cc1O,"inconclusive [inhibitor, single point]",
Cc1cc(C(=O)C(=O)NC(C)C)c(C)n1-c1ccc([N+](=O)[O-])cc1,active: 7.38 µM,
NC(=O)C1CC(=O)N(CCc2ccc(F)cc2)C1 (configuration not stated),,inactive: -5.07%
Cc1ccc(NC(=O)CSCC(=O)OC(C)C(=O)Nc2ccccc2C)cc1 (configuration not stated),,inactive: 20.7%
CCn1cc(CN2CCCC(CO)(Cc3ccc(F)cc3)C2)c2ccccc21 (configuration not stated),"inconclusive [inhibitor, single point]",
COc1ccccc1OCCn1c(=O)oc2ccc(C)cc21,"inconclusive [inhibitor, single point]",
CC1CC(C)CN(C(=O)C(C)N(C)CC(=O)Nc2ccc(Cl)cc2)C1 (configuration not stated),,inactive: 1.69%
O=C(COC(=O)/C=C/c1cccc(Cl)c1)Nc1ccccc1-c1ccccc1,,inactive: -6.64%
Cc1c(NC(=O)CSc2nnc(-c3cccc(Cl)c3)o2)c(=O)n(-c2ccccc2)n1C,,inactive: -0.73%
COc1ccccc1C(=O)Nc1nc2ccccc2s1,"inconclusive [inhibitor, single point]",
CC1CCC2(CC1)SCC(=O)N2c1ccc(F)cc1 (configuration not stated),,inactive: 28.8%
C[N+]1(C)CC2=Cc3ccccc3CC2C1 (configuration not stated),"inconclusive [inhibitor, single point]",
COC(=O)NC(=S)Nc1ccc(Oc2ccc(Cl)cc2Cl)c(Cl)c1,"inconclusive [inhibitor, partial curve]",
Cc1cc2ccc3ccccc3c2cc1CN(C)C,,inactive: -25.1%
Cc1ccc2occ(/C=N/NC(=O)c3ccccc3C)c(=O)c2c1,,inactive: 33.4%
Cc1nn2c(-c3cccc(NC(=O)CSc4nc5ccccc5o4)c3)nnc2c2ccccc12,"inconclusive [inhibitor, partial curve]",
COc1ccccc1C(=O)COC(=O)c1c(-c2ccccc2)noc1C,"inconclusive [inhibitor, single point]",
O=C(CNC(=O)Cc1ccc(Cl)cc1)NCc1ccco1,,inactive: 6.28%
O=C(NCCc1ccccc1)c1ccccc1SCC(=O)N1CCCC1,"inconclusive [inhibitor, partial curve, poor fit]",
COc1cccc2c(Nc3ccccc3C)cc(C)nc12,"inconclusive [inhibitor, partial curve, poor fit]",
N#CCSc1nnc(SCC#N)s1,,inactive: 0.354%
CC1CCCN(S(=O)(=O)c2ccc(C(=O)Nc3nnc(C4CC4)o3)cc2)C1 (configuration not stated),"inconclusive [inhibitor, single point]",
Fc1ccc(CSc2ccc(-c3ccco3)nn2)cc1,,inactive: 199%
CCOc1ccc2nc(N3CCCN(C(=O)Nc4ccccc4C)CC3)c(C#N)cc2c1,"inconclusive [inhibitor, single point]",
OCC1(CCc2ccccc2)CCN(Cc2cc(F)ccc2-n2cccn2)CC1,"inconclusive [inhibitor, single point]",

Compound,Potency,"activity change, negative = inhibition"
Nc1cnccc1C(=O)O,,inactive: 20.6%
Cc1cc(NC(c2cccnc2)c2ccc3cccnc3c2O)no1 (configuration not stated),active: 2.08 µM,
COc1cccc(-c2cc(C(F)(F)F)nc(-n3cc(C)cn3)n2)c1,"inconclusive [inhibitor, single point]",
O=C(CSc1nnnn1C1CCCCC1)NCCc1ccccc1,,inactive: 44.1%
O=C(CSc1nc2ccccc2o1)N1c2ccccc2Sc2ccccc21,"inconclusive [inhibitor, partial curve, poor fit]",
Cc1nc2c(C(=O)Nc3ccc(N4CCCC(O)C4)cc3)snc2c(=O)[nH]1 (configuration not stated),active: 1.65 µM,
Cc1ccccc1OCC(=O)N/N=C/C=C/c1ccccc1,,inactive: -0.279%
Cc1ccc(S(=O)(=O)N2CCN(C(=O)CSc3nc4ccccc4c(=O)[nH]3)CC2)cc1,"inconclusive [inhibitor, single point]",
CCN(CC)c1nc2ccccc2c(N)c1-c1ccccc1,active: 14.7 µM,
Cc1cc(=O)[nH]c(N/N=C/c2c[nH]c3ccccc23)n1,"inconclusive [inhibitor, single point]",
CC1CCN(S(=O)(=O)c2ccc3nc(-c4ccccn4)cc(C(=O)NCCN(C)Cc4ccccc4)c3c2)CC1,,inactive: -15.3%
COc1ccc(S(=O)(=O)N2CCC(Nc3ccccc3Cl)CC2)cc1,,inactive: 19.3%
O=c1cc(NCc2ccccc2)nc2ccccn12,,inactive: 167%
CCC(C)NC(=O)CC(c1ccccc1)c1cc(C)ccc1O (configuration not stated),"inconclusive [inhibitor, partial curve, poor fit]",
Cc1ccc(Nc2nnc(SCC(=O)NCCN3C(=O)CSC3=O)s2)cc1C,,inactive: 4.88%
O=C1CCN(CCc2ccccc2)CCN1[C@H](CSc1ccccc1)c1ccccc1,"inconclusive [inhibitor, full curve, poor fit]",
Cc1ccccc1-c1nc(CN2CCCC(C(=O)NCCCN3CCOCC3)C2)c(C)o1 (configuration not stated),"inconclusive [inhibitor, single point]",
CCOc1ccccc1NC(=O)COC(=O)c1c[nH]c2ccccc12,"inconclusive [inhibitor, single point]",
Nc1nc2c(Cl)cc(Cl)cc2s1,,inactive: 19.7%
CN1CCN(NC(=O)CSc2ccc(Cl)cc2Cl)CC1,"inconclusive [inhibitor, partial curve, poor fit]",
Cc1cc(N2CCOCC2)ccc1/C=C1\NC(=O)N(Cc2ccccc2F)C1=O,,inactive: -8.86%
O=C(CSCc1ccc(Cl)cc1)NCCSCc1ccco1,,inactive: 0.791%
Cc1cc(NC(=O)CCC(=O)N(c2ccccc2)C(C(=O)NCC2CCCO2)c2cccnc2)no1 (configuration not stated),,inactive: -0.602%
Cc1ccc(O)c(C(=O)CC(=O)c2ccccc2Cl)c1,active: 14.7 µM,
Cc1ccc(/C=N/N=C/c2ccc(C)cc2)cc1,"inconclusive [inhibitor, single point]",
Cc1cccc(C(=O)Nc2ccc(N3CCC(CCN4CCOCC4)CC3)c(C(=O)O)c2)c1,,inactive: 5.74%
